Experimental data published in PubChem BioAssay AID1963576 (National Center for Advancing Translational Sciences (NCATS), 2024).
About 60 (0.1%) of roughly 46,000 compounds were called active. About 3% were inconclusive and are not listed. Calls come from the whole dose curve; as a rule, active = well fitted inhibition curve with a large enough effect; inconclusive = small, poorly fitted or top-dose-only effect; inactive = no such curve, though single readings can be large or run the other way. Some of the results follow.

Assay: Primary qHTS assay for Inhibitors of ovarian cancer metastasis using an organotypic tumor microenvironment (TME) model.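 For activity change, negative = inhibition: plate controls were DMSO wells for no effect and tomatine positive control wells for full effect.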 Note: nearly all actives have a fitted effect of over 65% in size.
Conditions: SKOV3ip1-GFP adhesion/invasion on 3D omental model, fluorescence; series mostly up to 45.8 µM; activity change, negative = inhibition: at the top concentration
Procedure, shortened: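 A 3D layer of primary human omental fibroblasts, mesothelial cells, fibronectin and collagen I, grown 48 hr, received SKOV3ip1-GFP cells in serum-free medium plus compounds at 0.36-46 umol/L. After 2 hr RT and 16 hr 37 C, fixed adherent GFP cells were counted; normalized to DMSO and tomatine.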

outcome, inactive:
CC(=O)c1cccc(NC(=O)CN(c2cc(C)cc(C)c2)S(=O)(=O)c2c(C)noc2C)c1
COc1ccc(-c2cc(C(F)(F)F)nc(SCC(=O)NCCc3ccccc3)n2)cc1
O=C(Nc1ccccc1)c1nc[nH]c1C(=O)O
O=C(CSCc1cnn(-c2ccccc2)c1-n1cccc1)NCc1cccc(Cl)c1
COc1ccc(/C=C\c2onc(C)c2S(=O)(=O)N2CCC(C(=O)Nc3cccc(OC)c3)CC2)cc1
CCOC(=O)c1c(C)[nH]c(C)c1S(=O)(=O)N(C)CC(=O)Nc1ccc(CC)cc1
Cc1ccc(CNC(=O)c2c(C)oc3ncnc(N4CCOCC4)c23)cc1
CC1=C(C(=O)N2CCN(c3ccccc3)CC2)C2(CCCCC2)OC1=O
COc1cc(NC(=O)Cn2c(=O)ccc3cc(S(=O)(=O)N4CCCC4)ccc32)cc(OC)c1

Activity change, negative = inhibition, inactive:
CCOc1ccccc1C(=O)N(Cc1sccc1C)C1CCS(=O)(=O)C1 (stereo unspecified) 3.66%
Cc1ccc(NC(=O)Cn2cc(S(=O)(=O)Cc3ccc(F)cc3)c3ccccc32)cc1Cl 1.69%
Cc1c(-c2ccccc2)nc2c(Cl)cccc2c1C(=O)OCC(=O)c1ccc(F)cc1 8.86%
COc1cc(OC)c(N(C)C(=O)c2c(C)oc3ncn(CC(C)C)c(=O)c23)cc1Cl 5.94%
CCOC(=O)CSc1nc2cc3c(cc2c(=O)n1Cc1ccc(C(=O)NCCc2ccc(OC)c(OC)c2)cc1)OCO3 -7.72%
Cc1cc(C)c2c(CC(=O)N(Cc3ccc(Cl)cc3)Cc3ccco3)coc2c1 -32.7%
O=C(C1CCN(S(=O)(=O)c2ccc(Br)s2)CC1)N1CCN(c2cccc(C(F)(F)F)c2)CC1 -20.1%
CCCSc1ncc(Cl)c(C(=O)Nc2sc3c(c2C(=O)OC)CCCC3)n1 5.71%
N#Cc1c(-n2ncnc2-c2ccc(F)cc2)sc2c1CCCCC2 -4.16%
Cc1ccc(-n2nc(C)c(C(=O)O)c2-n2cccc2)cc1 6.3%
COc1ccc(CNC(=O)c2cc3ccccn3n2)cc1OC -6.23%
CCC(C)NC(=O)CCC(=O)N1Cc2ccccc2Oc2ncccc21 (stereo unspecified) -5.24%
CC(C)(C)NC(=O)c1oc2ccccc2c1NC(=O)c1ccccc1F 13.8%
Cc1ccc(S(=O)(=O)Nc2ccc3nc(-c4ccc(F)cc4)oc3c2)cc1 -26.8%
CCc1ccc(-n2c(=O)c3c4c(sc3n(CC(=O)c3ccc(Br)cc3)c2=O)CCC4)cc1 11.1%
CC(C)(C)[C@H](NC(=O)c1ccc(N)c(Cl)c1)C(=O)N1CCC[C@@H]1C(=O)N[C@H](C#N)CC(=O)O 12.1% [at 3.51 µM]
O=C(NCc1ccccc1)c1cc2ccc3cccnc3c2[nH]1 1.94%
